The results in this text go back to paper PMC12136788.

This is one part of the list.

To fix the notation:
T1: UNK ZnF1-3 (human, UniProt Q9C0B0 31-174)
T1 sequence: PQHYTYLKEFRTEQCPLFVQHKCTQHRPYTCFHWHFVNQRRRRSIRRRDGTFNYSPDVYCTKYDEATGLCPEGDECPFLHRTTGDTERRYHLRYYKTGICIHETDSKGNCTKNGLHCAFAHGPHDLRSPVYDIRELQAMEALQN

B1: chr20:52831857:52831858:+_ENSG00000101132_ENST00000441080|hu_mus|motif|central (ssRNA)
RNA: GGGAGUUCUACAGUCCGACGAUCCAGCAUGAUGUCAUCACAGGCGUCCUCUAAGUUCUGGAGAUGUUUCUUCUUCACUUCGGUUUCCUCCUUUAGCUCUGUGAUUCGACUCGUAUUCCGAGCAAAUUUGUUUAUUUUUUGCUGCAACAGAGGAUUGAGCAUCA
B2: 91020442_91020996_3268_CDS_ENSG00000140575_ENST00000268182|human|control|control (ssRNA)
RNA: GGGAGUUCUACAGUCCGACGAUCCAGGGCAUUCUGGCCACGGGCACCACGGUUGAAACUUACAACCAUUUUAAUAACCGUAGGAUUUCCUGUCACAAUCUCUUGAAUCUGAUCUACCUUCGACUUGAUUUCCUCUUGGAGUGCCAACAGAGGAUUGAGCAUCA
B3: chr6:122779733:122779734:-_ENSG00000111897_ENST00000339697|hu_hu|motif|central (ssRNA)
RNA: GGGAGUUCUACAGUCCGACGAUCCAACAUUACACAAGCUACACAUACUCCAACAAGCAAGAAAAGUGCAUAGAUCAAUCGGGUUACAGUGGAGUUGUUUCCACUAGGACAGCAUCGGCAUAGCAAACACGGGGCACUUCCACACAACAGAGGAUUGAGCAUCA
B4: 88512733_88512853_1577_3pUTR_ENSMUSG00000034111_ENSMUST00000037418|mouse|control|control (ssRNA)
RNA: GGGAGUUCUACAGUCCGACGAUCCUUGCUAUGUGGCAGAAACACAGACUUGGUAAAGAGAAAGGAGGAAAGGUCUAACCAUCAGGAAUAAUAAUAUCCAUUCAAGGCAGUGAGGUCUCCCAGCCUGAGCUAGAGACUAAGAAGCAACAGAGGAUUGAGCAUCA
B5: chr1:39494447:39494448:+_ENSG00000168653_ENST00000372967|hu_mus|hu_hu_hu_mus_False|68_78 (ssRNA)
RNA: GGGAGUUCUACAGUCCGACGAUCGCACCGAGCGGCGUUCUUAUAGGGCUGUUCUGCACUCUGGAUUGUCAACCAUCGGUCCAGGCUGAUGCCCAGCUUUUUCUGUAUGUCAAGGAAAGGCAUGGCUCUGCAGUGCCCUUGUCACAACAGAGGAUUGAGCAUCA
B6: chr3:9412954:9412955:+_ENSG00000134077_ENST00000452837|hu_mus|hu_hu_hu_mus_False|28_78 (ssRNA)
RNA: GGGAGUUCUACAGUCCGACGAUCGGUUGAUAUCUCUUCUUUGAUGGCUGGAUUUUCAUAAUAAUCUAAGAUAUGUGAAUCUGAAGUGCUGCUGGCAUGCUUUUUCUUAACAUUUCUCUCAUCUGCUUUGUCUCCUUGUCCACACAACAGAGGAUUGAGCAUCA
B7: chr19:30113593:30113594:+_ENSMUSG00000024817_ENSMUST00000025739|mus_mus|motif|central (ssRNA)
RNA: GGGAGUUCUACAGUCCGACGAUCUUUAACCUGAGCAUCAUUCUGCUUAGAUGUGCUAGGAAGACUGGAGUCUGGACGAACGGGCAGCUGAAUUAUAUCAUUCAGUCCAACGUCGUAGUCAAAUAAAGUAUAUCCAUUUUCCAACAACAGAGGAUUGAGCAUCA
B8: 179965723_179965843_909_3pUTR_ENSG00000135837_ENST00000367607|human|control|control (ssRNA)
RNA: GGGAGUUCUACAGUCCGACGAUCGAGCUCUCAAAAUCACAGCUCCGUAUAUUCCGUUCUUCUCGACUGCCUAUCAUCCAGUUACCGCUCUCAGUCUUUUCUUCAUUAACAUCUACACAGUAUACGUGCUUUGAUUCCAGAUGGCAACAGAGGAUUGAGCAUCA
B9: chr3:108394432:108394433:+_ENSMUSG00000040389_ENSMUST00000051145|mus_mus|motif|central (ssRNA)
RNA: GGGAGUUCUACAGUCCGACGAUCAGGAAAACGCGGAGGAGAGGCCGGCGGCCAGAGCCCCGAGACAGCCAAUUCCAGUCGGAGGCGCGAGCGCGAGGGCGGCGGUCUGGGCUAAGCAGCCCGCACGUCAAUCCAUCAGCUCGUCAACAGAGGAUUGAGCAUCA
B10: chr1:160302343:160302344:-_ENSG00000122218_ENST00000241704|hu_mus|FALSE|FALSE (ssRNA)
RNA: GGGAGUUCUACAGUCCGACGAUCCAGGUCUUCAGAGGGGUGGAACUGAGCACACAUUACAUAAUGGUUGUGCCCCGUUAACACACAGACACAGGUUCUAGACUGCCAGUUCCACACCCGAAUGGUCUGAUCAUCUGAGGCGCUCAACAGAGGAUUGAGCAUCA
B11: chr12:88580095:88580096:-_ENSMUSG00000021038_ENSMUST00000072744|mus_mus|FALSE|FALSE (ssRNA)
RNA: GGGAGUUCUACAGUCCGACGAUCACGUGCUGAAGCAGAUGGCUCACCACCUGGACAGUGUGCAGGUGUCAGAGGGACCCUAUAUCCCUCACACGUCCCUACACAAAGUUGACAGGGACAGUGCCGUGACAGCAGGUAGAUACUCAACAGAGGAUUGAGCAUCA
B12: chr2:237995794:237995795:+_ENSG00000198612_ENST00000392008|hu_hu|motif|central (ssRNA)
RNA: GGGAGUUCUACAGUCCGACGAUCGUAUUCUUUUCCAAAGAUAUCUUGCAUUAUUCAUGUCAUUAUGGAGCAAAUAUAAAGCGGGAAGCUGACCAUACACUGGGGGUGUAGCAAUUCCUCCAGGGGCUAUUAUAAGAAACAAAUCAACAGAGGAUUGAGCAUCA
B13: chr18:77733610:77733611:-_ENSG00000141759_ENST00000592957|hu_mus|motif|central (ssRNA)
RNA: GGGAGUUCUACAGUCCGACGAUCCUCAUCUCACGGAUCCUCCAGCUCUACAGCAAUGUCGGGCUGCAGGGCCUUUCCAGAGGCGGCGAGAGCAGAGUAUUUCUAUGUGGAAGAGGCUCUCAGUGUCCUUUGCACAGCCUGAGGCAACAGAGGAUUGAGCAUCA
B14: chr17:62495851:62495852:-_ENSG00000108654_ENST00000581693|hu_hu|FALSE|FALSE (ssRNA)
RNA: GGGAGUUCUACAGUCCGACGAUCUCACUGUACAUUUACUUUUGUGAAAACACUGCCUGCAUUUUCUAGUACAAAAAAAACCUAAAAAUUGUUUCAGGAAUGUAGAGAAAUAUCCAACUUAAAUAGCGAAAAAGUGCACCAUAACAACAGAGGAUUGAGCAUCA
B15: 52781405_52782389_3119_CDS_ENSMUSG00000035726_ENSMUST00000046709|mouse|control|control (ssRNA)
RNA: GGGAGUUCUACAGUCCGACGAUCGCCACGGCCUGAACUAUGUACAGAUGCCUUCCUCUUCCGGCUCAUACUUCGGCUCUGUUCUUCUUCCUCCUCAUAACGGCUUUCCCGGUCCGCUUUUCGUGCUUCUUCUUCUAGCUCAUCCAACAGAGGAUUGAGCAUCA
B16: chr7:44664009:44664010:+_ENSG00000105953_ENST00000222673|hu_mus|FALSE|FALSE (ssRNA)
RNA: GGGAGUUCUACAGUCCGACGAUCAGAAUAGCACCGAAUCUGUUGAAACGUCCUAAUUGCUGCUGGUUUGUUUUGUGAAAAUGUCUUAACAGUCUGGGAGGCUGUCAAUGGCCUUAACUUAGCAGCACAAGUCCUUAAAUGAAACAACAGAGGAUUGAGCAUCA
B17: chr2:179515052:179515053:+_ENSMUSG00000000305_ENSMUST00000000314|mus_hu|mus_mus_mus_hu_False|78_88 (ssRNA)
RNA: GGGAGUUCUACAGUCCGACGAUCGCUGUCCCAUGCAGUCACCGUGAAGGCCACCUGCUCUGAGGGGACCUGCAGCUCCCGGGUGGCGAAGACUGUCCCAUCUGCCCCAACUUUGAAGUCCAUGCUGUUGGUCUCAUAUUGUGUCAACAGAGGAUUGAGCAUCA
B18: chr7:75932113:75932114:+_ENSG00000106211_ENST00000248553|hu_hu|hu_hu_hu_mus_False|88_108 (ssRNA)
RNA: GGGAGUUCUACAGUCCGACGAUCCUGCGACCACUCCUCGGGCAACCGGGGCAGCCCGAAAGCUUGAUCGAAGAGGCGGCUGUGUGCAGGGUACCAGUCCCGGAAUGGUUCCCAGCUCGGGCUCCGCAGCAGCGAGAAGGGCACCAACAGAGGAUUGAGCAUCA
B19: chr7:140404665:140404666:+_ENSG00000090266_ENST00000247866|hu_hu|hu_hu_hu_mus_False|8_78 (ssRNA)
RNA: GGGAGUUCUACAGUCCGACGAUCUGCUCCUACUCGUCCAGAGAGUUUACAGUGUCAGUCUUCAUCAUCAGGAGGGAUUCCCAGUUCUUCAUCUGUCCACUGUGAAGGAUCUGGAUAUGAAAAGUGACCCAGCACCUCAUCCGACAACAGAGGAUUGAGCAUCA
B20: chr6:40197388:40197389:+_ENSMUSG00000057716_ENSMUST00000061740|mus_mus|mus_mus_mus_hu_False|38_98 (ssRNA)
RNA: GGGAGUUCUACAGUCCGACGAUCGAGACACUGGGGUGGAUGGCACCCACCUCUGUUUGGGUGCUAGCCACUAAGACUGUUAUUUUGGGAUUCAUGGCCUUGAAGAUCAAGAGGGAAAGGAAGAGGAUGGAAAGAGUCAAGAGUCAACAGAGGAUUGAGCAUCA
B21: chr6:106732989:106732990:-_ENSMUSG00000005362_ENSMUST00000049675|mus_hu|motif|central (ssRNA)
RNA: GGGAGUUCUACAGUCCGACGAUCACUGCCAAUUUUAAGGAGCUGAAUUCUCAAUACAUCAUCAAUAGGAAGACAAGCAGCGGCUCUGUAAGAAAAAUCUAUUGGAUUUGAAGGAAGAGAAUCAUCUUUUAGAUUUUCAUCCCACAACAGAGGAUUGAGCAUCA
B22: 16573988_16574108_998_CDS_ENSMUSG00000070808_ENSMUST00000094821|mouse|control|control (ssRNA)
RNA: GGGAGUUCUACAGUCCGACGAUCGGCUGCUGCAGUGGCAGCCCCUGUCCCGGCAAACACCGAGUUCCCGUUGAGUGUGGUGGUCACUGCGGCUGGAAGAUUUUUCUGGAUGACCAGGCCGGCUCCCUGGGGGGACACGCCGGCCAACAGAGGAUUGAGCAUCA

This assay deals with T1, UNK ZnF1-3. Nature of the assay: nsRBNS (natural sequence RNA bind-n-seq); RBNS binding buffer (assumed for nsRBNS): 25 mM Tris pH 7.5, 150 mM KCl, 3 mM MgCl2, 0.01% Triton X-100, 500 ug/ml BSA, 20 U/ml SUPERase-In, 4 C; UNK is unkempt and MSI1 is Musashi-1; names of the RNAs are library labels; protein concentration not given here; high values mean tight binding.
B1 gave a binding signal of 0.327 enrichment R.
For the molecule B2, the binding signal stood at 1.14 enrichment R.
As for B3, the figure is 1.69 enrichment R; as for B4, 1.62 enrichment R; as for B5, 0.618 enrichment R.
B6 had a binding signal of 0.567 enrichment R.
As for B7, the figure is 1.94 enrichment R.
With B8 the figure was 0.846 enrichment R.
With B9 the figure was 0.858 enrichment R; with B10, 1.06 enrichment R; with B11, 0.592 enrichment R.
Regarding B12, the binding signal came to 1.4 enrichment R.
With B13 the figure was 0.838 enrichment R; with B14, 1.07 enrichment R; with B15, 0.467 enrichment R.
As for B16, the figure is 1.1 enrichment R; as for B17, 0.859 enrichment R; as for B18, 1.39 enrichment R.
As for B19, the figure is 1.35 enrichment R; as for B20, 1.45 enrichment R; as for B21, 1.28 enrichment R.
For the molecule B22, the binding signal worked out at 0.863 enrichment R.
